{"source": "PubChem BioAssay AID1345082", "about": "(National Center for Advancing Translational Sciences (NCATS), 2018)", "note": "About 4,000 (4.3%) of roughly 94,000 compounds were called active. Inconclusive means that the source gave no clear call. Such entries were picked first, then a sample of the others. Calls come from the whole dose curve; as a rule, active = well fitted inhibition curve with a large enough effect; inconclusive = small, poorly fitted or top-dose-only effect; inactive = no such curve, though single readings can be large or run the other way. A potency beside an inconclusive call is a rough fit, not a confirmed value. % is set by controls: 0 for no effect and ±100 for the full control effect; potency is the fitted concentration of half-maximal effect; tags give direction and shape of the fitted curve."}
{"assay": "Cytotoxic Profiling in NIH 3T3 Cell Line of Diverse Libraries Using Quantitative High-Throughput Screening; note: nearly all actives have a fitted effect of over 55% in size", "conditions": "NIH 3T3 viability, CellTiter-Glo ATP luminescence, 48-72 h; activity change, negative = cytotoxicity: at 96.7 µM (top of the series); series mostly up to 96.7 µM", "method_in_brief": "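Mouse fibroblast NIH 3T3 cells, 400 per well, received compound via pintool and were incubated for 48 or 72 hr prior to CellTiter-Glo ATP luminescence measurement.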"}
{"compound": "O=C(NCc1ccc2c(c1)OCO2)[C@@H]1C[C@@H](c2ccc(F)cc2)N(CCOc2ccccc2)C1", "Potency": "inconclusive: 50.1 µM [inhibitor, partial curve, poor fit]"}
{"compound": "Cc1cc2cc(-c3c(C)noc3C)nc(-c3ccccc3)c2o1", "Potency": "inconclusive: 56.2 µM [inhibitor, partial curve, poor fit]"}
{"compound": "COc1ccccc1C(=O)Nc1ccc([C@H]2OCC(=O)N(Cc3ccccc3)[C@@H]2CO)cc1", "Potency": "inconclusive: 10 µM [inhibitor, full curve, poor fit]"}
{"compound": "O=C1COc2ccc(Oc3ccccc3)nc2CN1CCOc1ccccc1", "Potency": "inconclusive: 63.1 µM [inhibitor, partial curve, poor fit]"}
{"compound": "O=C(CC1CCCC1)N1CC(c2nnc(-c3ccncc3)o2)C2(CCOCC2)C1", "note": "(stereo not given)", "Potency": "inconclusive: 70.8 µM [inhibitor, single point]"}
{"compound": "Cc1ccc(NC(=O)Cn2cccc2-c2nc(-c3ccccc3)no2)cc1", "Potency": "inconclusive: 50.1 µM [inhibitor, partial curve, poor fit]"}
{"compound": "CC(C)c1noc(C2CCCN(Cc3cccnc3)CCC(=O)NCC2)n1", "note": "(stereo not given)", "Potency": "inconclusive: 39.8 µM [inhibitor, partial curve, poor fit]"}
{"compound": "O=C(Nc1ccccc1)C1=NO[C@@H]2CN(Cc3ccc4[nH]ccc4c3)C[C@H]12", "Potency": "inconclusive: 70.8 µM [inhibitor, partial curve]"}
{"compound": "OC1(c2csc(CN3CCOCC3)n2)CCN(CC2CCCCC2)CC1", "activity change, negative = cytotoxicity": "inactive: -5.5% [at 174 µM]"}
{"compound": "CC(C)c1nc(-c2ccc(OC3CCN(C(=O)c4ccoc4)C3)cc2)no1", "note": "(stereo not given)", "Potency": "inconclusive: 28.2 µM [inhibitor, partial curve]"}
{"compound": "COCCNC(=O)[C@H]1C[C@H](Oc2ccccc2)CN1C(=O)c1ccccc1OC", "activity change, negative = cytotoxicity": "inactive: -9.04%"}
{"compound": "COc1cccc(NC(=O)Cn2c(N3CCCCC3)nc(C)c(C)c2=O)c1", "Potency": "inconclusive: 50.1 µM [inhibitor, single point]"}
{"compound": "O=C(c1ccc(C(F)(F)F)cc1)N1CCCC(C(=O)N2CCC(N3CCCC3=O)CC2)C1", "note": "(stereo not given)", "activity change, negative = cytotoxicity": "inactive: -14.5%"}
{"compound": "CCN(CC)Cc1cnc2c(C(=O)N3CCCCCCC3)cnn2c1", "activity change, negative = cytotoxicity": "inactive: -0.529%"}
{"compound": "O=C(Nc1ccc(-c2nnc3n2CCCC3)cc1)c1ccc2ccccc2n1", "Potency": "inconclusive: 56.2 µM [inhibitor, partial curve, poor fit]"}
{"compound": "Cc1nc2c(c(-c3ccc(O)cc3)n1)CN(C(=O)C1CCCC1)CC2", "Potency": "inconclusive: 44.7 µM [inhibitor, partial curve, poor fit]"}
{"compound": "COc1ccc(-c2ccc3nc(-c4ccccc4C)oc3c2)c(OC)c1OC", "Potency": "inconclusive: 50.1 µM [inhibitor, partial curve, poor fit]"}
{"compound": "COc1ccc(NC(=O)Cn2c(-c3ccccc3)nc(C)cc2=O)cc1", "Potency": "inconclusive: 10 µM [inhibitor, full curve]"}
{"compound": "O=C1CC(c2ccccc2)N(C(=O)CNC(=O)c2cc3ccccc3[nH]2)CCCCCCN1", "note": "(stereo not given)", "activity change, negative = cytotoxicity": "inactive: -1.9%"}
{"compound": "COc1ccccc1-c1cnc(Nc2cccnc2)c2c1CCO2", "Potency": "inconclusive: 56.2 µM [inhibitor, partial curve, poor fit]"}
{"compound": "O=C(c1cc(-c2cccc(C(F)(F)F)c2)c2cccn2n1)N1CCCC1", "Potency": "inconclusive: 50.1 µM [inhibitor, partial curve, poor fit]"}
{"compound": "COc1ccc(-c2cnc([C@@H]3COCCN3Cc3ccncc3)[nH]2)cc1", "Potency": "inconclusive: 100 µM [inhibitor, partial curve, poor fit]"}
{"compound": "CC1=C[C@@H](CNC(C)C)[C@H](C(C)C)C[C@H]1Cc1nnc(-c2ccc(N(C)C)cc2)o1", "Potency": "active: 31.6 µM"}
{"compound": "O=C(C1CCN(S(=O)(=O)N2CCOCC2)CC1)N1CCc2nc3cc[nH]n3c(=O)c2C1", "Potency": "inconclusive: 70.8 µM [inhibitor, single point]"}
{"compound": "Cc1cn2nc(C(=O)Nc3ccc4c(c3)OCCO4)cc2c(N2CCCC2)n1", "Potency": "inconclusive: 2.82 µM [inhibitor, full curve, poor fit]"}
{"compound": "Cc1ccc(C2(O)CCN(c3cc(C(F)(F)F)ccn3)CC2)nc1", "Potency": "inconclusive: 63.1 µM [inhibitor, partial curve, poor fit]"}
{"compound": "Cc1cc(-c2ccccc2)nc(CN2CC[C@@](O)(C3CCC3)[C@H](C)C2)n1", "Potency": "inconclusive: 35.5 µM [inhibitor, full curve, poor fit]"}
{"compound": "O=C(NCC(F)F)C1CCN(C(=O)c2ccc(-c3cccs3)cc2)CC1", "Potency": "inconclusive: 70.8 µM [inhibitor, partial curve, poor fit]"}
{"compound": "Cc1ccc(CN2CCc3oc(C)c(C(=O)NCCN4CCCCC4)c3C2)cc1", "activity change, negative = cytotoxicity": "inactive: -27.9%"}
{"compound": "COc1ccc(C2Cn3nnc(-c4noc(Cc5cccc(F)c5)n4)c3CO2)cc1", "note": "(stereo not given)", "Potency": "inconclusive: 12.6 µM [inhibitor, full curve, poor fit]"}
{"compound": "CC(=O)Nc1ccc(CN2CCC3(C2)C(=O)N(c2ccccc2)c2ccccc23)cc1", "note": "(stereo not given)", "Potency": "inconclusive: 50.1 µM [inhibitor, partial curve, poor fit]"}
{"compound": "COCCN1CC(CO)C2(CCN(Cc3ccc(F)c(OC)c3)CC2)C1", "note": "(stereo not given)", "Potency": "inconclusive: 50.1 µM [inhibitor, partial curve, poor fit]"}
{"compound": "COc1cccc(-c2cccc(C(=O)N3CCCC3C(=O)NCc3ccc4c(c3)OCO4)c2)c1", "note": "(stereo not given)", "Potency": "inconclusive: 50.1 µM [inhibitor, single point]"}
{"compound": "CC(C)NC(=O)N1CCNc2cnc(Nc3cccc(C(F)(F)F)c3)nc2C1", "Potency": "active: 39.8 µM"}
{"compound": "COc1cccc(-c2cc(C(=O)N(C)Cc3ccccc3)c3cnn(C)c3n2)c1", "Potency": "inconclusive: 44.7 µM [inhibitor, partial curve, poor fit]"}
{"compound": "COc1ccc(-c2cc(N3CCC(NC(=O)c4ccccc4F)CC3)n[nH]2)cc1", "Potency": "inconclusive: 44.7 µM [inhibitor, partial curve, poor fit]"}
{"compound": "Cc1onc(-c2cnn(C)c2NCCc2ccccc2)c1C(=O)N1CCCC(C(N)=O)C1", "note": "(stereo not given)", "Potency": "inconclusive: 89.1 µM [inhibitor, partial curve]"}
{"compound": "COCC1CN(C(C)=O)CC12CCN(C(=O)COc1ccc(Cl)cc1)CC2", "note": "(stereo not given)", "Potency": "inconclusive: 44.7 µM [inhibitor, partial curve, poor fit]"}
{"compound": "C[C@H]1CCCN1C(=O)c1nnc(COc2cccc(Cl)c2)n1-c1ccccc1", "Potency": "inconclusive: 100 µM [inhibitor, partial curve, poor fit]"}
{"compound": "COc1ccc2[nH]c(C[C@@H]3C[C@@H](C(C)C)[C@H](CNC(C)=O)C=C3C)nc2n1", "Potency": "inconclusive: 79.4 µM [inhibitor, partial curve, poor fit]"}
{"compound": "Cc1ccccc1-c1cnc2[nH]cc(CC(=O)N3CCCC3)c2c1", "Potency": "inconclusive: 35.5 µM [inhibitor, partial curve, poor fit]"}
{"compound": "O=C(NCc1ccc(Cl)cc1)c1cc2n(n1)CC(c1ccc3c(c1)OCO3)OC2", "note": "(stereo not given)", "Potency": "inconclusive: 44.7 µM [inhibitor, partial curve, poor fit]"}
{"compound": "CCOC(=O)c1cccc(NC(=O)N2CC[C@@H](CC(=O)NCc3ccccc3)[C@@H](CC)C2)c1", "Potency": "inconclusive: 89.1 µM [inhibitor, partial curve, poor fit]"}
{"compound": "COc1ccc(-c2cc(-c3ccncc3)c3cncn3c2)cc1", "Potency": "active: 35.5 µM"}
{"compound": "CCOc1ccc(C(=O)N2CCN(c3nnc4ccc(C(F)(F)F)cn34)CC2)cc1", "Potency": "inconclusive: 50.1 µM [inhibitor, single point]"}
{"compound": "CC(C)c1nc2c(c(-c3ccc(Cl)cc3)n1)CCN(Cc1ccsc1)CC2", "Potency": "inconclusive: 70.8 µM [inhibitor, single point]"}
{"compound": "CCC(CC)Nc1ncnc2c1CN(C1CCCNCC1)C(=O)CN2C", "note": "(stereo not given)", "activity change, negative = cytotoxicity": "inactive: -6.92%"}
{"compound": "COc1cccc(C(=O)N2CCC(c3n[nH]c(=O)n3-c3ccc(C)cc3)CC2)c1", "Potency": "active: 35.5 µM"}
{"compound": "O=C(NC1CC1)C1CCCN(Cc2cccc(-c3ccc(F)cc3F)c2)C1", "note": "(stereo not given)", "Potency": "inconclusive: 50.1 µM [inhibitor, partial curve, poor fit]"}
{"compound": "CCn1ccc(C(=O)N2CC3CC(C2)[C@H]2CCCC(=O)N2C3)n1", "note": "(stereo not given in full)", "activity change, negative = cytotoxicity": "inactive: 3.13%"}
{"compound": "Cc1ccc(NC(=O)N2Cc3[nH]cnc3C[C@H]2c2nc(-c3ccc4ccccc4c3)no2)cc1", "Potency": "inconclusive: 50.1 µM [inhibitor, partial curve, poor fit]"}
{"compound": "COC(=O)[C@@H]1Cc2ncn(C)c2CN1S(=O)(=O)c1ccc(F)cc1", "Potency": "inconclusive: 126 µM [inhibitor, single point]"}
{"compound": "COc1ccc(C(CC(=O)N2CCC(Cc3ccccc3)CC2)c2c[nH]c3ccccc23)cc1OC", "note": "(stereo not given)", "Potency": "inconclusive: 22.4 µM [inhibitor, full curve, poor fit]"}
{"compound": "CN1CCCN(C(=O)CC2CCCC2)c2ccccc21", "Potency": "inconclusive: 50.1 µM [inhibitor, partial curve, poor fit]"}
{"compound": "CC(C)N1C(=O)C2(CCN(C(=O)Cc3c[nH]c4ccccc34)CC2)C1c1ccccc1", "note": "(stereo not given)", "Potency": "inconclusive: 50.1 µM [inhibitor, partial curve, poor fit]"}
{"compound": "Cc1ccc(C(=O)N(C)C2CCc3ccccc32)cc1", "note": "(stereo not given)", "Potency": "inconclusive: 100 µM [inhibitor, partial curve, poor fit]"}
{"compound": "O=C(NC1CCN(c2ccc3nnc(-c4ccccc4)n3n2)C1)C1CC1", "note": "(stereo not given)", "Potency": "inconclusive: 5.01 µM [inhibitor, partial curve, poor fit]"}
{"compound": "CC(C)(C)c1nnc2ccc(C(=O)NCc3cccnc3)cn12", "activity change, negative = cytotoxicity": "inactive: -15.1% [at 138 µM]"}
{"compound": "Cc1noc(C)c1CC(=O)N1CCCC(c2nn(C)c(=O)n2C(C)C)C1", "note": "(stereo not given)", "activity change, negative = cytotoxicity": "inactive: 4.08%"}
{"compound": "CCOc1ccccc1C1NC(=O)N(CC(=O)Nc2ccccc2C(C)C)C2=C1C(=O)OC2", "note": "(stereo not given)", "activity change, negative = cytotoxicity": "inactive: -15.6%"}
